# Screen size: about 310,000 compounds; about 2,200 (0.71%) showed an effect of 50% or more. The effect is printed as a negative number. Some of the results follow.
# Molecular target: human ether-à-go-go-related gene (hERG) potassium channel (human, UniProt Q12809)
# Assay: primary screen, population patch clamp on CHO cells stably expressing hERG
# Chain of human ether-à-go-go-related gene (hERG) potassium channel (Q12809 whole entry, looked up): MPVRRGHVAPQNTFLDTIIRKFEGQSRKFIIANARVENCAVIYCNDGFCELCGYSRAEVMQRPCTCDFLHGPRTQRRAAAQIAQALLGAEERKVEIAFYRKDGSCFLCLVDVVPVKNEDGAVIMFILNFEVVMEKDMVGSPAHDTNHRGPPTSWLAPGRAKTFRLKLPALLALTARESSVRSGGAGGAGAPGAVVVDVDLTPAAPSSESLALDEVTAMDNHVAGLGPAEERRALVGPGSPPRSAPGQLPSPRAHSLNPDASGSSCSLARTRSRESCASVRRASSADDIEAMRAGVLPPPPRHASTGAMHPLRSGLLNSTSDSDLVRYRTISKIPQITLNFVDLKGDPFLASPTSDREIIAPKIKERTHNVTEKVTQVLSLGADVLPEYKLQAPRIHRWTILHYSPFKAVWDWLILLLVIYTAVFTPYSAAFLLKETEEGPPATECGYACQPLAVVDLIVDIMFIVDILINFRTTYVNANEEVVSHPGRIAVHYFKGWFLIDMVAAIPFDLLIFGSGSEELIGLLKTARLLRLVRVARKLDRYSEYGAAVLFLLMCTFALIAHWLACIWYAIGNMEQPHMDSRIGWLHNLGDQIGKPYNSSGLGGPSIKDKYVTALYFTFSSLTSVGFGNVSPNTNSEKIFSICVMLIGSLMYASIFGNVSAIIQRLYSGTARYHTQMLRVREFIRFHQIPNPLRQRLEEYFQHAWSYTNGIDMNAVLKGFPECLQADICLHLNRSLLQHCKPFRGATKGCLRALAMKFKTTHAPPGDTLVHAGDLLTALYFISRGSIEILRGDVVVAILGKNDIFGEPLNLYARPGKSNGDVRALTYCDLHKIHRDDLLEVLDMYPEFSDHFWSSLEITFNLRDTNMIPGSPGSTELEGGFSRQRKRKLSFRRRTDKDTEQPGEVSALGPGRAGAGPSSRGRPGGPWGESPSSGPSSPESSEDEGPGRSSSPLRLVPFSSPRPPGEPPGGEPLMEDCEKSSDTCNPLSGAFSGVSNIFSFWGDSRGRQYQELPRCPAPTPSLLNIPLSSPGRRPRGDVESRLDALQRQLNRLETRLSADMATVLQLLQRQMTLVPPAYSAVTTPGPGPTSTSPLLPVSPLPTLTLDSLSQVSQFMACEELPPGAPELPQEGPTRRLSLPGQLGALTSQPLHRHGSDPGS
row,SMILES,"hERG current change (%, negative = inhibition) at 1uM [%]"
1,CC(=O)Nc1ccc(S(=O)(=O)Nc2cc(-c3ccccc3)nn2C)cc1,16.2
2,COc1ccc(CNC(=O)Cn2nnc3ccccc3c2=O)cc1,13
3,CCOC(CCNC(=O)CCC(=O)Nc1ccc2nc(N3CCN(C)CC3)cc(C)c2c1)OCC,18.8
4,COc1ccccc1-n1cc(-c2ccccc2)c2c(=S)nc[nH]c21,11.8
5,COc1ccc(S(=O)(=O)N2CCC(C(=O)N[C@@H](C)C(=O)N3CCCCCC3)CC2)cc1,-5.24
6,CCOC(=O)c1cnc(-c2ccccc2)nc1Oc1ccc(C)cc1,17.1
7,O=c1cc(C(F)(F)F)[nH]c(=O)n1C1CCCCC1,-2.27
8,COCc1[nH][nH]c(=O)c1C=Nc1ccc(F)cc1F,1.77
9,Cc1occc1C(=O)NCCCCc1ccccc1,13.3
10,COC(=O)c1c(C)[nH]c(C(=O)C(C)OC(=O)c2cnc(C)cn2)c1C (centres unmarked),12.2
11,COCCN(Cc1ccccc1)C(=O)c1cccc(S(=O)(=O)N2CCCc3ccccc32)c1,2.23
12,CN(CC(=O)Nc1cccc(F)c1)C(=O)c1ccc2c(c1)NC(=O)CS2,7.98
13,COc1ccc(C(=O)Nc2oc(-c3ccccc3)c(-c3ccccc3)c2C#N)cc1OC,11.5
14,Cc1ccc(CN(CC(=O)NCc2ccccn2)S(=O)(=O)c2ccccc2)cc1,0.106
15,C=CC[N+](C)(C)CCCNC(=O)/C=N/O.[I-],14
16,CCOC(=O)CSc1ccc(C(=O)NCCN2CCOCC2)cc1[N+](=O)[O-],13.8
17,Cc1onc(-c2ccccc2)c1C(=O)N1CCCN2C(=O)c3ccccc3C21 (centres unmarked),6.77
18,O=C(CN1C(=O)C2C3C=CC(C3)C2C1=O)Nc1ccc(S(=O)(=O)N2CCCCC2)cc1 (centres unmarked),9.49
19,Cc1ccsc1/C=N/NC(=O)c1nnn(-c2nonc2N)c1C,-13.3
20,CCC/C=C1/CCCOC(C(=O)NCCNCCO)(C(F)(F)F)C1 (centres unmarked),17.6
21,O=C(Nc1ccc(OCC(F)(F)C(F)F)c(C(F)(F)F)c1)c1ccc(Cl)cc1,6.93
22,c1ccc2[nH]c(SCc3cn4ccccc4n3)nc2c1,3.92

row,SMILES,"hERG current change (%, negative = inhibition) at 1uM [%]"
1,CCOC(=O)C1CCN(c2ncnc3c2cnn3-c2ccc(Cl)cc2)CC1,8.01
2,CCOC(=O)c1sc(/N=C/C2=C(O)CC(C)(C)CC2=O)c(C(=O)OCC)c1C,4.33
3,COc1ccccc1OCC(=O)Nc1ccc(N2CCOCC2)cc1N1CCOCC1,2.2
4,O=C(Nc1nc(-c2nc3ccccc3s2)cs1)C1CC1,6.85
5,CCOc1ccc2nc(NC(=O)CC3Oc4ccccc4NC3=O)sc2c1 (centres unmarked),13.5
6,O=C(NCc1ccncc1)C1CCN(S(=O)(=O)c2cc(Cl)ccc2Cl)CC1,12.6
7,O=C(O)c1cccc(N2C(=S)N=C(Nc3ccccc3)C23CCCCC3)c1,13.2
8,CNC(=O)/C(=C\C=C\c1ccccc1)NC(=O)c1ccc([N+](=O)[O-])cc1,-85
9,COCCNC(=S)N1CCN(c2nc(-c3ccc(F)cc3)cs2)CC1,11
10,C=CCNC(=O)C1CCN(c2nc(C)cc(-c3ccccc3)n2)CC1,-31.2
11,O=S(=O)(NC12CC3CC(CC(C3)C1)C2)c1ccc(F)cc1,-0.925
12,Cc1cccc(N2CCN(C(=O)NC(C)c3ccc(F)c(F)c3)CC2)c1C (centres unmarked),-4.86
13,COc1cccc(CC2(CO)CCCN(Cc3ccc(OC(F)F)cc3)C2)c1 (centres unmarked),-47.4
14,CNc1nc(NCCOC23CC4CC(CC(C4)C2)C3)nc(OCC(F)(F)F)n1,9.75
15,CCOC(=O)N1CCN(S(=O)(=O)c2ccc(C(=O)N(CCCN(C)C)c3nc4ccc(Cl)cc4s3)cc2)CC1.Cl,-1.29
16,CCCC(O)(c1ccc(OC)cc1)C(CN1CCOCC1)c1ccc(Cl)cc1.Cl (centres unmarked),10.2
17,COc1ccc(C2/C=C\CN(C(=O)C3CCCC3)[C@H](Cc3ccccc3)C(=O)N2Cc2ccc(F)cc2)cc1 (some centres unmarked),11.8
18,CCOC(=O)N(NC(=O)C(O)(C(C)C)C(C)C)c1ccccc1,12.9
19,CC(OC(=O)CN1C(=O)c2ccccc2C1=O)C(=O)NC1CCCC1 (centres unmarked),3.48
20,O=c1c2c3c(sc2nc2n1CCCCC2)CCC3,10.9
21,CN(CCC(=O)Nc1ccc(Cl)cc1)Cc1ccccc1.Cl,2.99
22,COc1cccc(NC(=O)N2C3CCCC2CC(NC(=O)C(C)(C)C)C3)c1 (centres unmarked),10.5

# — article PMC4336329 (PLoS ONE, 2015)
